The values that follow come from PMC12136788.

Positions count from the first letter of the chain named. The list shows a part of the results.

T1: UNK ZnF1-3 (human, UniProt Q9C0B0 31-174)
T1 sequence: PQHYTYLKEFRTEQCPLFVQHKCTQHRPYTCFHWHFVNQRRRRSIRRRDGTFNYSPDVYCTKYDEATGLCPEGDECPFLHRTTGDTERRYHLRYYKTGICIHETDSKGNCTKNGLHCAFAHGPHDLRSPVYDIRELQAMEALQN

B1: chr4:57314706:57314707:+_ENSG00000128050_ENST00000264221|hu_mus|hu_hu_hu_mus_True|88_88 (ssRNA)
RNA: GGGAGUUCUACAGUCCGACGAUCCAGAAUUUCAAAAAUAGCUUGUGUAGCAUGACUCAUGAUGUCCACUUCAGUCUGCCCUAUAACAAGGCCAGCAAAACAGAAUUUUGCAGCAAUGAGUUGCUCCUCAGACCACUGUGGAUCCAACAGAGGAUUGAGCAUCA
B2: 160287392_160287512_2467_CDS_ENSG00000123636_ENST00000355831|human|control|control (ssRNA)
RNA: GGGAGUUCUACAGUCCGACGAUCAAGUGUGGAAGAAGAUGUACCAAGAAAAGCAGGUGACUGGGAUUCAGAACAUAAGGCAGCAGGAGCAGAGCCUGGGGCUUUUGCUAUGUGGAGGUUACGAGGUGUUGAGUGACCUGUGAGCAACAGAGGAUUGAGCAUCA
B3: 8395770_8396156_4501_CDS_ENSG00000133026_ENST00000269243|human|control|control (ssRNA)
RNA: GGGAGUUCUACAGUCCGACGAUCGGCCCGGUCCCGCUCUUCGGCAUAGCGAGCAGAGAUGCUCUUCUCUUCUGCUAACAGCUGGUCAAACUUCUUCUGCUUCUUCUCCAAGUUGGAGGCGACCUGGCGCUGGUGGUCCAGGUCCAACAGAGGAUUGAGCAUCA
B4: chr7:40027299:40027300:+_ENSG00000065883_ENST00000340829|hu_hu|motif|central (ssRNA)
RNA: GGGAGUUCUACAGUCCGACGAUCAUUCUUGUUCAAUUCAGCUGCCAGGCUACUCUUCAGAGUUAGUGUGCUAGGAGAAAUACGGGAAUGACGACUUCUGGAUCUAGACAAUCUGUGCCUGCUACGAGAUCUUGAAUGCCUAGACAACAGAGGAUUGAGCAUCA
B5: chr1:26449037:26449038:+_ENSG00000175087_ENST00000374271|hu_hu|FALSE|FALSE (ssRNA)
RNA: GGGAGUUCUACAGUCCGACGAUCAUUUGCAAAUAAUAUGUGUCACGUUUCCCAGCUGCUAUCUUUAAAUGCAAUUUGUACUAAUCUGAGUUCUAGUUCAAAAGCAUCUGGACGAUCCUGAGGGUUUGCAGCCAGCAUUUCCUUCAACAGAGGAUUGAGCAUCA
B6: chr20:57015987:57015988:+_ENSG00000124164_ENST00000520497|hu_mus|FALSE|FALSE (ssRNA)
RNA: GGGAGUUCUACAGUCCGACGAUCUUCCAUCACCUUCUUUACUUCUGUGUCAUCGAGGGGCGAUGUCAGGGACUUUGCGGCUGCCGGUGCUUCUGUCUUGGAUGCACUCGUAGGUAUGAUUUUAUUUAUUUCUACAUCAUGUGGCAACAGAGGAUUGAGCAUCA
B7: chr1:93299114:93299115:+_ENSG00000122406_ENST00000370321|hu_mus|FALSE|FALSE (ssRNA)
RNA: GGGAGUUCUACAGUCCGACGAUCCUGGAUCACCAAUCGUUUUCGAGCAUAGUAGUCAGUUUUACCCUCUCGCCGCCUUCGAAAUCUCACUUGGUAUCUUUUAAAGUAGGCCUUAUUCUUGACAACUUUCACAAACCCCAUCCUCAACAGAGGAUUGAGCAUCA
B8: chr12:42180722:42180723:-_ENSMUSG00000036295_ENSMUST00000043884|mus_hu|mus_mus_mus_hu_True|38_68 (ssRNA)
RNA: GGGAGUUCUACAGUCCGACGAUCCUGUAGGAGAAGAAUCUGUGUGUUAGCUGGCAAUCUGGCUGGGAAGUUUAAAAGACCUAAAUCAUUACAAUCCACUGUCGAUGCUUCCAUAUAAAUGGAUCUGGGUGUAAACCAAGGCCUCAACAGAGGAUUGAGCAUCA
B9: chr17:17163782:17163783:-_ENSG00000141030_ENST00000268717|hu_hu|motif|central (ssRNA)
RNA: GGGAGUUCUACAGUCCGACGAUCGAGUUCUGAGGGGUUGUUGGUUGAAUACACUUGUGCUAACUCGUGGUAUGCAUUGCGGAGAGGCUUAAUGAAUCUACCCACAAUUUGAGAUGUAUAUUUUGGUAGCUGUUGUACUUUGCCCAACAGAGGAUUGAGCAUCA
B10: chr3:176740097:176740098:-_ENSG00000177565_ENST00000430069|hu_mus|hu_hu_hu_mus_True|1_78 (ssRNA)
RNA: GGGAGUUCUACAGUCCGACGAUCUGUUUUGUAUACCACAAAAGGAGGCACUUUCAGUAUCUGUAAAAGGUGUUUAGUCCUAAAACAUACUCACCUAGAGGAUAACUCAGGAAAACAAUCUGUUACACUCUAAGACCUUAGGAACAACAGAGGAUUGAGCAUCA
B11: chr4:57314706:57314707:+_ENSG00000128050_ENST00000264221|hu_mus|hu_hu_hu_mus_True|18_98 (ssRNA)
RNA: B1 RNA with U42C, A48G, G117C, U120C, C123U
B12: chr1:163112212:163112213:-_ENSG00000143248_ENST00000313961|hu_hu|hu_hu_hu_mus_False|58_58 (ssRNA)
RNA: GGGAGUUCUACAGUCCGACGAUCUUUUAUUAUCAGUAAGAGUGAGUUACAUACUAGGCAAAGUAUUGGAUACAAUAUUCUAAAGAUAAACACUAUUGGUCCAGAAUUUAAAACUUUAUGAGCGAAGUGCUGGCACAGGACUUACAACAGAGGAUUGAGCAUCA
B13: chr7:90019092:90019093:+_ENSMUSG00000057706_ENSMUST00000082237|mus_hu|FALSE|FALSE (ssRNA)
RNA: GGGAGUUCUACAGUCCGACGAUCAACACACUAAACAGUCCACACAUCCCAUAGCACUACUAUCAUCUUCAUCAUAAUUAUUACUGUUCAUUUUUUCCUACUUUAAGAAAAUGGAAAACUUGUGGGGUUUUCUUCUUUUGGAAGCAACAGAGGAUUGAGCAUCA
B14: chr2:9728443:9728444:-_ENSG00000134308_ENST00000238081|hu_hu|FALSE|FALSE (ssRNA)
RNA: GGGAGUUCUACAGUCCGACGAUCUUGCAUCUCUUUCUUGCUUAUAUCAAAUGCCUCUUGGUAAGCUCCUUGGGAAUUAUCUAUCGUUUGUUUUCGAUCAUCACCACACGCAACUUCAGCAAGGUACCGGAAGUAAUCACCCUUCAACAGAGGAUUGAGCAUCA
B15: chr9:104153060:104153061:-_ENSG00000136897_ENST00000374865|hu_hu|FALSE|FALSE (ssRNA)
RNA: GGGAGUUCUACAGUCCGACGAUCGUAAGAUUCCAAACGACUCUGGAGAUCUUCAGGUGGUGUGUAUGCUCGGCUUCGUAAAGGUGGACACACUAGGAUAGGUUCCUUUUUCUCUUCUACUGUCUCAACAACCACUGGCUCUUUCAACAGAGGAUUGAGCAUCA
B16: chr5:67718940:67718941:+_ENSMUSG00000029221_ENSMUST00000113676|mus_mus|FALSE|FALSE (ssRNA)
RNA: GGGAGUUCUACAGUCCGACGAUCAGUAAAGGACUCGGUGUCAUCGUGGGGACUUCGCCGCCUGAUUUUUCGAAGUUGUUCUAAAUCACUGGACUUAAGGCAGAACUCGUUUAUUGCUCUCACUCCAGUGAUGAAAUUAUUCUUCAACAGAGGAUUGAGCAUCA
B17: chr2:61719535:61719536:-_ENSG00000082898_ENST00000401558|hu_mus|motif|central (ssRNA)
RNA: GGGAGUUCUACAGUCCGACGAUCGUUUACUACUGUCUUCAAAAAUUUCCAGUGUGCUCUCAAAAAUCUUGGGUAUUGACCGGCGGUGUACAUGAUAUUCGAUGCAAUAAUAGCUUUAUUAUCUUUGCCUCUUUUCUGCUCACACAACAGAGGAUUGAGCAUCA
B18: chr1:46159212:46159213:+_ENSG00000159596_ENST00000372025|hu_mus|hu_hu_hu_mus_True|38_38 (ssRNA)
RNA: GGGAGUUCUACAGUCCGACGAUCUCUGAUCCCUCCCAAGAAAGCUAGGAAACCGGCUCCAUAAGCCAUCUGAGUGAAAGCUAGGACGGGGAUAUAAGUUUUUGUCAUUACCAUGAGAAGUGGGGGAGCAGUAAAGGGGAUUAACAACAGAGGAUUGAGCAUCA
B19: 73151538_73161298_714_CDS_ENSMUSG00000022607_ENSMUST00000110036|mouse|control|control (ssRNA)
RNA: GGGAGUUCUACAGUCCGACGAUCGUCACUCUUCACCUGUUGAUAGAAGAAAUUCAAUGUUGGCUUAUCUUCAGUAAACUGGUUUAGAAAUCCUUUUGGCAAGUAACGAAUUCUCAACUCAUAUUUCCACUCCUCUGGUGGGUGCAACAGAGGAUUGAGCAUCA
B20: chr10:69676056:69676057:+_ENSG00000096717_ENST00000212015|hu_hu|motif|central (ssRNA)
RNA: GGGAGUUCUACAGUCCGACGAUCAUGGAAAAUGUAACGAUUUGGUGGCAAAAACAGAUACUGAUUACCAUCAAGCCGCCGGCGGAUCUGCUCCUUUGCCACUCUAUUAGGCCAGCAUUUUCUCACUGUUCCAGCCACUGAAGUCAACAGAGGAUUGAGCAUCA
B21: 98363965_98364085_502_CDS_ENSMUSG00000022992_ENSMUST00000116400|mouse|control|control (ssRNA)
RNA: GGGAGUUCUACAGUCCGACGAUCCUUUGGGGCAGCACUGGGGCACCUUUUUCCAUUCUUCGUCGAGACGUAACUACAUUGUUUGAAGGGUGCAUUCUUGUCUUCAAGAAUGUGCUUAAUGCAGAACUCCUGCCCCUCCAGCCGCAACAGAGGAUUGAGCAUCA
B22: chr1:58468927:58468928:-_ENSMUSG00000026034_ENSMUST00000148330|mus_mus|mus_mus_mus_hu_False|48_48 (ssRNA)
RNA: GGGAGUUCUACAGUCCGACGAUCAAUUACUGAAAAAGAUGUUCAUUACCUUAGCUAUGUACUUAAUGAACCAAAUUACCCAAACAACAUAAAAUGUGCAAUAUAAAAAUGUUAAGAAUUUACAAAGCUGUACAAAAUAACUUACAACAGAGGAUUGAGCAUCA

The target in the assay is T1, UNK ZnF1-3. As to the kind of experiment: nsRBNS (natural sequence RNA bind-n-seq); RBNS binding buffer (assumed for nsRBNS): 25 mM Tris pH 7.5, 150 mM KCl, 3 mM MgCl2, 0.01% Triton X-100, 500 ug/ml BSA, 20 U/ml SUPERase-In, 4 C; UNK is unkempt and MSI1 is Musashi-1; names of the RNAs are library labels; protein concentration not given here; high values mean tight binding.
On to B1, for which the binding signal stood at 0.931 enrichment R. For the molecule B2, the binding signal is 1.83 enrichment R.

Take B3: the binding signal came out at 0.59 enrichment R. As for B4, the figure is 0.714 enrichment R. B5: the binding signal was 1.1 enrichment R. B6 came in with a binding signal of 0.64 enrichment R. B7 gave a binding signal of 1.03 enrichment R. Molecule B8 returned a binding signal of 1.43 enrichment R. Take B9: the binding signal amounted to 0.713 enrichment R. To B10 belongs 0.762 enrichment R; to B11, 1.12 enrichment R; to B12, 1.35 enrichment R. To B13 belongs 1.36 enrichment R.

B14 yielded a binding signal of 0.913 enrichment R. Regarding B15, the binding signal amounted to 0.604 enrichment R. As to B16, the binding signal worked out at 0.528 enrichment R. The molecule B17 showed a binding signal of 0.801 enrichment R. As for B18, the figure is 1.46 enrichment R; as for B19, 0.737 enrichment R. B20: the binding signal was found to be 0.835 enrichment R. B21 displayed a binding signal of 0.667 enrichment R. With B22, the binding signal came to 0.98 enrichment R.
